{"source": "PubChem BioAssay AID485281", "about": "(National Center for Advancing Translational Sciences (NCATS), 2010)", "note": "About 260 (0.074%) of roughly 350,000 compounds were called active. Inconclusive results, whose numbers are uncertain, are shown with a selection of clear calls. Calls come from the whole dose curve; as a rule, active = well fitted inhibition curve with a large enough effect; inconclusive = small, poorly fitted or top-dose-only effect; inactive = no such curve, though single readings can be large or run the other way. A potency beside an inconclusive call is a rough fit, not a confirmed value. % is set by controls: 0 for no effect and ±100 for the full control effect; potency is the fitted concentration of half-maximal effect; tags give direction and shape of the fitted curve.", "data": [{"target": "Ferritin light chain (Equus caballus) (UniProt P02791)", "sequence (P02791 whole entry, looked up)": "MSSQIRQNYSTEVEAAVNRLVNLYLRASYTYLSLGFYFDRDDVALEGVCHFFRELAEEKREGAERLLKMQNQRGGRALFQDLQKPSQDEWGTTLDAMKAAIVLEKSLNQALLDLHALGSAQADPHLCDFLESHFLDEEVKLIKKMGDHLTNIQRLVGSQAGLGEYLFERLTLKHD", "test": "qHTS Assay for Identification of Novel General Anesthetics; note: nearly all actives have a fitted effect of over 20% in size", "conditions": "apoferritin/1-aminoanthracene competitive binding, fluorescence; activity change, negative = displacement: at 77.5 µM (top of the series)", "procedure,_shortened": "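Horse-spleen apoferritin (10 uM) was mixed with 50% saturated 1-aminoanthracene in PBS, exposed to compounds for 10 min at room temperature, and read for fluorescence (ex 380 nm, em 535 nm). Competitive displacement was fitted with a four-parameter Hill equation.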", "values": [{"smiles": "CCOc1ccc(C(C(=O)NC2CCCCC2)N(CCOC)C(=O)c2snc(C(N)=O)c2N)cc1", "note": "(configuration not stated)", "Potency": "inconclusive: 17.8 µM [inhibitor, partial curve]"}, {"smiles": "N/C(=N\\OC(=O)N1c2ccccc2Sc2ccccc21)c1ccccc1", "Potency": "inactive"}, {"smiles": "O=C(Nc1ccc2c(c1)OCCO2)c1ccc2nccnc2c1", "Potency": "inconclusive: 14.1 µM [inhibitor, partial curve]"}, {"smiles": "COc1ccccc1Nc1n[nH]c(=S)s1", "Potency": "inactive"}, {"smiles": "COc1cccc(Oc2ccc(C(F)(F)F)cc2NC(=O)CCc2nc3ccccc3c(=O)[nH]2)c1", "Potency": "inconclusive: 28.2 µM [inhibitor, partial curve]"}, {"smiles": "O=C(N/N=C/C=C/c1ccccc1[N+](=O)[O-])c1cccs1", "Potency": "inactive"}, {"smiles": "NC(=O)CC(NC(=O)c1cccc(Br)c1)c1ccc(N2CCCCCC2)c([N+](=O)[O-])c1", "note": "(configuration not stated)", "Potency": "inconclusive: 44.7 µM [inhibitor, single point]"}, {"smiles": "COc1ccc(N2CCN(c3ccc(NC(=O)/C=C\\C(=O)O)cc3)CC2)cc1", "Potency": "inconclusive: 10 µM [inhibitor, partial curve, poor fit]"}, {"smiles": "Cc1ccc(C)c(NC(=O)CSc2n[nH]c(-c3ccccn3)n2)c1", "Potency": "inactive"}, {"smiles": "COc1ccc(N2CCN(C(=O)CSc3nnc(COc4cccc5cccnc45)o3)CC2)cc1", "Potency": "inconclusive: 39.8 µM [inhibitor, partial curve]"}, {"smiles": "C/C(=C\\c1ccco1)C1C(C#N)=C(N)Oc2n[nH]c(-c3ccc(C)cc3)c21", "note": "(configuration not stated)", "Potency": "inconclusive: 28.2 µM [inhibitor, partial curve]"}, {"smiles": "CC(=O)C(Sc1ncnc2sc3c(c12)CCCC3)C(C)=O", "Potency": "inactive"}, {"smiles": "CS(=O)(=O)c1sc2nc(-c3cccs3)cc(-c3ccccc3)c2c1N", "Potency": "inactive"}, {"smiles": "CN1C(=O)/C(=C2\\SC(N3CCCCCC3)=NC2=O)c2ccccc21", "Potency": "inconclusive: 35.5 µM [inhibitor, partial curve]"}, {"smiles": "CC(=O)c1ccc(NC(=O)C(C)Sc2nnc(C3CCCCC3)o2)cc1", "note": "(configuration not stated)", "Potency": "inconclusive: 35.5 µM [inhibitor, single point]"}, {"smiles": "Cc1ccc(-c2nc(CS(=O)(=O)CC(=O)Nc3ccc(Br)cc3F)c(C)o2)cc1", "Potency": "inconclusive: 5.62 µM [inhibitor, full curve]"}, {"smiles": "COc1ccc(CNC(=O)c2ccc3c(=O)n(CCCN4CCCC4=O)c(=S)[nH]c3c2)cc1", "Potency": "inconclusive: 39.8 µM [inhibitor, single point]"}, {"smiles": "Cc1ccc(C)c(NC(=O)CCC(=O)N/N=C/c2ccc3c(c2)OCO3)c1", "Potency": "inconclusive: 3.16 µM [inhibitor, full curve]"}, {"smiles": "N#Cc1c(N)sc(=S)c2c1CCN(Cc1ccccc1)C2", "Potency": "inactive"}, {"smiles": "O=C(Nc1ccc(-c2cnco2)cc1)c1ccc(Cl)cc1", "Potency": "inactive"}, {"smiles": "CC(NC(=O)Nc1cccc([N+](=O)[O-])c1)(C(F)(F)F)C(F)(F)F", "Potency": "inconclusive: 39.8 µM [inhibitor, partial curve]"}, {"smiles": "CCN(CC)S(=O)(=O)c1ccc2c(c1)N(CC(=O)NCc1ccccc1)C(=O)C1CCCCN21", "note": "(configuration not stated)", "Potency": "inconclusive: 14.1 µM [inhibitor, partial curve]"}, {"smiles": "Cc1cc2c(cc1S(=O)(=O)Nc1ccc(OC(F)(F)F)cc1)OCC(=O)N2", "Potency": "inconclusive: 17.8 µM [inhibitor, partial curve]"}, {"smiles": "Cc1c(C(=O)Nc2ccc(OC(F)(F)F)cc2)sc2nc3n(c(=O)c12)CCC3", "Potency": "inconclusive: 17.8 µM [inhibitor, partial curve]"}, {"smiles": "O=C(c1ccc2c(c1)N(Cc1ccccc1F)C(=O)c1ccccc1S2(=O)=O)N1CCN(c2ccccn2)CC1", "Potency": "inactive"}, {"smiles": "CCCCSc1nc2c(c(C(F)(F)F)c1C#N)CCC2", "Potency": "inconclusive: 35.5 µM [inhibitor, partial curve]"}, {"smiles": "CC(=O)c1cccc(Oc2cc(NN3CCCCC3)c([N+](=O)[O-])cc2[N+](=O)[O-])c1", "Potency": "inconclusive: 39.8 µM [inhibitor, partial curve]"}, {"smiles": "Cc1ccccc1Nc1nc(-c2cccnc2)cs1", "Potency": "inconclusive: 11.2 µM [inhibitor, partial curve]"}, {"smiles": "CC12C=C(/C=C/c3ccc(C(F)(F)F)cc3)C(C)(C1)C(c1ccc(C(F)(F)F)cc1)CC2=O", "note": "(configuration not stated)", "Potency": "inconclusive: 5.01 µM [inhibitor, single point]"}, {"smiles": "CN1c2ccsc2/C(=N/Nc2ccccc2)CS1(=O)=O", "Potency": "inconclusive: 28.2 µM [inhibitor, partial curve]"}, {"smiles": "O=C(NCCN1C(=O)S/C(=C\\c2cccs2)C1=O)c1ccc(=O)[nH]c1", "Potency": "inactive"}, {"smiles": "CCOc1cc(CNc2ccc3c(c2)CCC3)ccc1O", "Potency": "inconclusive: 39.8 µM [inhibitor, partial curve]"}, {"smiles": "COc1cc(C(=O)NCc2nnc(SCC(=O)c3ccc(Cl)cc3)o2)cc(OC)c1OC", "Potency": "inconclusive: 35.5 µM [inhibitor, single point]"}, {"smiles": "COC(=O)C1C(c2ccc(Cl)cc2)NC(c2ccc(Cl)cc2)C(C(=O)OC)S1(=O)=O", "note": "(configuration not stated)", "Potency": "inconclusive: 2.82 µM [inhibitor, full curve, poor fit]"}, {"smiles": "O=C(CSc1n[nH]c(-c2ccc(S(=O)(=O)NC3CCCCC3)cc2)n1)N1CCCC1", "Potency": "inactive"}, {"smiles": "O=C(N1CCOCC1)N1c2ccccc2Sc2ccccc21", "Potency": "inconclusive: 35.5 µM [inhibitor, single point]"}, {"smiles": "NC(=O)NC(Cc1ccccc1)c1ccccc1", "note": "(configuration not stated)", "Potency": "inactive"}, {"smiles": "CC(C)Cc1cc(C(=O)NCc2cccs2)no1", "Potency": "inconclusive: 28.2 µM [inhibitor, single point]"}, {"smiles": "CNC(=S)NC12CC3CC(CC(C3)C1)C2", "Potency": "inconclusive: 5.01 µM [inhibitor, full curve]"}, {"smiles": "CCC(=O)OCCNc1cc(Sc2nc3ccccc3s2)c2nonc2c1[N+](=O)[O-]", "Potency": "inconclusive: 28.2 µM [inhibitor, partial curve]"}, {"smiles": "CCCCc1ccc(NS(=O)(=O)c2cccs2)cc1", "Potency": "inconclusive: 31.6 µM [inhibitor, partial curve]"}, {"smiles": "CC1=C(c2ccc(Cl)cc2)S(=O)(=O)N=C1N1CCN(c2cccc(C)c2C)CC1", "Potency": "inconclusive: 17.8 µM [inhibitor, partial curve]"}, {"smiles": "CC(C)c1ccc(OCc2nnc(SCC(=O)N3CCCCC3)o2)cc1", "Potency": "inconclusive: 15.8 µM [inhibitor, single point]"}, {"smiles": "CC(C)(C)OC(=O)N1CCC(c2c(C(=O)NCCN3CCc4ccccc4C3)cnn2-c2ccc(F)cc2)CC1", "Potency": "inconclusive: 50.1 µM [inhibitor, single point]"}, {"smiles": "CCn1c2ccccc2c(=O)c2ccccc21", "Potency": "inactive"}, {"smiles": "CN(C)S(=O)(=O)Nc1ccc2c(c1)OCO2", "Potency": "inconclusive: 28.2 µM [inhibitor, partial curve]"}, {"smiles": "CCCCC/C=C\\C/C=C\\C/C=C\\C/C=C\\CCCC(=O)O[C@H](COCCCCCCCCCCCCCCCC)COP(=O)([O-])OCC[N+](C)(C)C", "Potency": "inconclusive: 39.8 µM [inhibitor, single point]"}, {"smiles": "N#Cc1c(NC(=O)CSc2nnc(-c3ccco3)n2-c2ccccc2)sc2c1CCC2", "Potency": "inconclusive: 28.2 µM [inhibitor, partial curve]"}, {"smiles": "Clc1ccc(CSc2ncnc3nc[nH]c23)cc1", "Potency": "inconclusive: 20 µM [inhibitor, partial curve]"}, {"smiles": "Cc1nc(SCC(=O)NCc2ccco2)c2oc3ccccc3c2n1", "Potency": "inconclusive: 50.1 µM [inhibitor, single point]"}, {"smiles": "CCCc1nn(-c2cc(Cl)ccc2OC)c2c1C(=O)CC(C)(C)C2", "Potency": "inconclusive: 50.1 µM [inhibitor, single point]"}, {"smiles": "CC(=O)c1ccc(OCc2cc([N+](=O)[O-])cc3c2OCOC3)cc1", "Potency": "inconclusive: 31.6 µM [inhibitor, partial curve]"}, {"smiles": "O=C(NC1CCCCC1)c1ccc(Cn2cc(Br)cn2)o1", "Potency": "inconclusive: 28.2 µM [inhibitor, partial curve]"}, {"smiles": "CC(C)[C@H](N)c1nnc(SCC(=O)c2ccc(Cl)cc2)o1", "Potency": "inconclusive: 5.01 µM [inhibitor, full curve, poor fit]"}, {"smiles": "CC(=O)N1c2ccc(S(=O)(=O)N(C)CC(=O)NCc3ccccc3)cc2CC1C", "note": "(configuration not stated)", "Potency": "inactive"}, {"smiles": "Cc1ccccc1CNC(=O)c1ccc2nc(SCc3ccc(F)cc3)n(C)c2c1", "Potency": "inactive"}, {"smiles": "CC(C)(C)c1nnc2sc(SCC(=O)N3CCCc4ccccc43)nn2c1=O", "Potency": "inconclusive: 39.8 µM [inhibitor, partial curve]"}, {"smiles": "CC(=O)c1ccc(C2C=CC(Oc3ccc(F)cc3C)C(CO)O2)cc1", "note": "(configuration not stated)", "activity change, negative = displacement": "inactive: -10.3% [at 15.3 µM]"}, {"smiles": "C/C(=C\\C(=O)c1ccc(Br)cc1)NCc1ccc(C)cc1", "Potency": "inconclusive: 10 µM [inhibitor, full curve]"}, {"smiles": "O=C(/C=C/c1ccco1)NCC(=O)N/N=C/c1ccccc1[N+](=O)[O-]", "Potency": "inconclusive: 31.6 µM [inhibitor, single point]"}, {"smiles": "CCCOc1ccc(-c2cccc(NS(=O)(=O)c3ccccc3)c2)nn1", "Potency": "inconclusive: 5.01 µM [inhibitor, full curve]"}, {"smiles": "Cc1ccccc1CN1C(=O)c2ccccc2S(=O)c2ccc(C(=O)NCc3ccc(Cl)cc3)cc21", "note": "(configuration not stated)", "Potency": "inactive"}, {"smiles": "COCO[C@H]([C@@H](C)C=C(Br)Br)[C@@H](C)COCc1ccc(OC)cc1", "Potency": "inactive"}, {"smiles": "O=C(CSc1ccccc1)NC1CCCCCCC1", "Potency": "inconclusive: 20 µM [inhibitor, partial curve]"}, {"smiles": "CN(C)S(=O)(=O)Nc1ccccc1F", "Potency": "inconclusive: 28.2 µM [inhibitor, partial curve]"}, {"smiles": "O=C(COC(=O)c1ccccc1)NCCC1=CCCCC1", "Potency": "inconclusive: 35.5 µM [inhibitor, partial curve]"}, {"smiles": "CC(C)(C)C(=O)Nc1nnc(COc2ccc(Cl)cc2)s1", "Potency": "inconclusive: 35.5 µM [inhibitor, partial curve]"}]}]}
